Assay results from the supplement of paper PMC11417369.
± gives the standard deviation of the averaged measurements. The list shows a part of the results.

Tested on: PfAP2-LT AP2 domain (GST-tagged)
Experiment: gcPBM binding intensity (ln(normalized median fluorescence intensity)); higher = stronger DNA binding
In short: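 Binding intensity values are the highest Masliner-normalised natural-log median intensity among replicate spots of either probe orientation. The binding step lasted 1 h in 1× PBS with 1% milk, 0.2 mg/ml BSA, 0.5% salmon testes DNA and 0.03% Triton X-100, using GST-tagged P. falciparum DNA-binding domains expressed in E. coli on an Agilent 4 × 180k array of primer-extended double-stranded 36-bp intergenic genomic probes plus negative controls. Alexa488 anti-GST antibody and a 488 nm scan detected bound protein.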

Sequence	gcPBM binding intensity (ln)
TAAATTATAAATTGCACACATATTTTTATATTTATA [CACACA_site2976]	8.8 ± 0.42
TATTTCATATGAAGAAGTACTATTAATAATTTCCTT [XGTACX_site6587]	8.44 ± 0.37
ATATATGCATATATATGTACATATATATATATATAT [XGTACX_site7403]	9.59 ± 0.099
AATAAATAAAAAATTACACACATATATATAAATATA [CACACA_site3434]	8.9 ± 0.47
ATAATATATTTAATCATACACACATTTATGTACCTA [CACACA_site1719]	9.06 ± 0.45
AAAAATAAAGGGTGTGCACACAAAAATATATATATA [CACACA_site1727]	9.7 ± 0.43
TTTTTTTTTAAAACATAATAAAAAATAAAACAACCT [GTGCAC_negctrl_site92]	8.35 ± 0.4
CAAAAATAATAGAATACATGCAAAAATAAATGTATA [TGCATGCA_site196]	8.96 ± 0.42
TTTAATTTTTAATCAGTGCAATATTATATAATATAT	8.48 ± 0.35
TACAATAATGATTGTTGTACATTATTGATATTTAAA [XGTACX_site2940]	8.44 ± 0.43
AAAAAAAAACAGAAAACACACAAATTATCTTAGAAT [CACACA_site309]	8.97 ± 0.47
TCATTTTAATTAAAAGTGCAAAAAATAATATAACTA [GTGCAC_site9968]	8.51 ± 0.39
ATTAATTCGTTTTGTACACACATAATGAATAATTTA [CACACA_site2235]	8.94 ± 0.28
TATATGAAATATTATGCACACAATATATAATATGAT [CACACA_site936]	9.07 ± 0.38
AATAATTCATCATATGCACACACAATACCAAAATGT [CACACA_site7945]	9.42 ± 0.33
ATATATATATATATATGTACATATATATTGTTGATC [XGTACX_site8893]	9.73 ± 0.23
ACATATTATTCAAGTGCACACTTTATATTTATGATT [CACACA_site3295]	9.12 ± 0.37
ATTTAATTCGTACATACACACGCACATATATATATA [CACACA_site8415]	9.39 ± 0.11
TTTATTTTGTTTATGGTGCATTTTATGTAAATATAT	8.77 ± 0.33
AAAATATATTATTATTGTACATATATTTTCATTTAC [XGTACX_site4593]	8.87 ± 0.47
TAAATATATTTATAAGCACACACTAATAAACCCACA [CACACA_site390]	9.3 ± 0.3
AATTTTTATACGGATACACACAAAAAAAAATAAAAA [CACACA_site897]	8.79 ± 0.57
AAGGCATATATAATTTGTACATATTAAGAATTAGAT [XGTACX_site8660]	8.79 ± 0.44

Sequence	gcPBM binding intensity (ln)
TGAAATAAAATTATTTGTACATATCGGAAAAAAAAA [XGTACX_site7131]	8.38 ± 0.49
TTTTTTGAAAATAAATGTACGAATTTTATATTTAAA [XGTACX_site2768]	7.95 ± 0.32
AAGAAAATAAAAAGGTAAATATGTATAAATAAATAA [TGCATGCA_negctrl_site88]	8.71 ± 0.47
GATACAGATGGACACACACACATACATAAATACATA [CACACA_site5833]	9.96 ± 0.49
AAATTACCCATCCATACACACATATTTTTTTTAATT [CACACA_site2189]	9.02 ± 0.32
AATAAATAAATAAATAAATAAATATATATATATATA [GTGCAC_negctrl_site330]	9.01 ± 0.33
TAATGACAATAAAAATAAATAAATAAAAAAAAAAAA [TGCATGCA_negctrl_site321]	8.51 ± 0.56
ATATATTATCTGTACACACACATATAAGGGATTATA [CACACA_site4180]	9.32 ± 0.33
TATATACACATTTTTATACACACTTGTTTTATAAAA [CACACA_site8139]	8.79 ± 0.45
TTATGCATATATTATGCATGTAGTTTTAAATCACAT [TGCATGCA_site104]	8.68 ± 0.35
AAAAAATACATACATACACACATATTTATTTATATA [CACACA_site6554]	9.03 ± 0.38
GCACAAATATATATATATATATATATATATATATAT [GTGCAC_negctrl_site661]	10.2 ± 0.12
AAGAACCATATTTAAACACACATACCTATATAAATA [CACACA_site7553]	9.02 ± 0.38
ATAATTATATACCATGCACACAAATATTCATACAGG [CACACA_site9343]	9.18 ± 0.45
TACAATATAAAATACACACACACAAACATATATTTA [CACACA_site5941]	9.82 ± 0.085
TGCCCTAACCATACTACACACACTGCTCAAAATAGT [CACACA_site2219]	9.42 ± 0.33
TATATATATTTATAATGTACACATATATGTAAATAT [XGTACX_site3695]	8.71 ± 0.4
TATTTATAAATATGTGTGCACAATTTATTTTATAAT	8.88 ± 0.39
TTTTTTTTATATATCTGTACATATATATATATATAT [XGTACX_site8280]	9.07 ± 0.32
TTATTTCTAACATGATGTACTTTTATATTATATAAT [XGTACX_site3574]	8.73 ± 0.51
TATTTTCAAAATGTTGTACACACAAAAAAAAAAAAA [CACACA_site8437]	8.8 ± 0.54
ATATACTTTTCAATGTGTACTTATGAATATATATGT [XGTACX_site7972]	8.81 ± 0.47
ATATATATATATATATGTACATACATATTGTTTGGT [XGTACX_site2284]	10 ± 0.4

Sequence	gcPBM binding intensity (ln)
ATATAATAATATGGTTGTACATAAATAACACATGAA [XGTACX_site6592]	8.95 ± 0.38
CAAAATATTTTTTCCTGTACATAATTCCTATTTCAC [XGTACX_site3590]	8.71 ± 0.43
ATGATTATACAAAATATACACACGTGTAGACAAATA [CACACA_site1175]	9.27 ± 0.28
TAATAATAGAAACACACACACATAGACATATATATA [CACACA_site1307]	9.85 ± 0.14
CACTTAAAAAGCTAACGTACAAATACACATATATAA [XGTACX_site1851]	8.81 ± 0.4
AATATATATATAAATAATATACCTATATATTTTTTG [XGTACX_negctrl_site407]	8.51 ± 0.44
AAAAACAATTTAATCACACATATATGTCACAAAGAT [CACACA_site5043]	8.98 ± 0.48
ATATTAAATATTATCACACACATAATTATTTCCATA [CACACA_site2334]	9 ± 0.48
TAATAAATTCATAATTGTACATTGAAGTATTATGCA [XGTACX_site5121]	8.58 ± 0.38
TTTTTTTATTTTGTATGTACATATCATTTGATATTC [XGTACX_site8449]	8.98 ± 0.43
TATATATATAACAGAATGCACTTTATATGTTCATAT [GTGCAC_site9880]	8.8 ± 0.37
TATACGTATACCTATACACACATATATTTATTTATA [CACACA_site6716]	8.98 ± 0.3
AAAAAATACAGACACACACACACACGCATATAAATA [CACACA_site7644]	10.1 ± 0.25
GATATCCTTATATTTGCACACACACCCAATAAAATG [CACACA_site1028]	9.7 ± 0.17
ATTATTACTATATGTGTACACATCAACTGGTTTGAT [CACACA_site5563]	9.38 ± 0.47
AGTAGCGGCGGTATCATGCACACGTATAGATTGTAA [CACACA_site1587]	9.26 ± 0.47
CCACGTATACGATGCACACGTATGCTTTATATATAG [CACACA_site4108]	9.01 ± 0.31
TTGTTTATATATATATGTACATATTTTAAGGCATCC [XGTACX_site6976]	8.76 ± 0.47
GTTGAAAAAAATATATGTACGTATATATGTATGTAT [XGTACX_site8201]	8.96 ± 0.43
ATTAAATCCGCACGCACACACACATATTAAGAAAAA [CACACA_site6062]	9.54 ± 0.3
TAATTATTTTTATATTGTACAATATGTAAATATATA [XGTACX_site592]	8.45 ± 0.33
TTTTTTGAATTTAAAAGTACAGGCTTTTACCAAATA [XGTACX_site1356]	8.12 ± 0.46
ATAAATAAATAAATCTGTACATATGTATATGTATAT [XGTACX_site4537]	8.87 ± 0.46

Sequence	gcPBM binding intensity (ln)
AATTAAAAAAAAAAAAAAAAAAAAAAATGAAAAAAA [CACACA_negctrl_site1073]	8.4 ± 0.54
AAAAAAAAAAAAAAAAGTACATACAACATTATGAAA [XGTACX_site207]	8.63 ± 0.48
ACTTAATTTTTTTTATGTACTTATTTAAAAAATTTT [XGTACX_site2712]	8.64 ± 0.28
CTTAAAGGGAAAAATACACACATATAAATATTATGT [CACACA_site2225]	8.96 ± 0.44
TTAGTAGTATTATGTAGTACATAATTATCATATCAT [XGTACX_site817]	8.69 ± 0.47
TTTGTGTATATAACAGTGCAATATTATAAATATAAA [GTGCAC_site9750]	8.72 ± 0.4
ATAATCCTTGGACACACACACACACTAGTAAATAAA [CACACA_site4423]	9.99 ± 0.3
AACCCAAAATAATTATGTACATATTTTTAAATATAT [XGTACX_site6487]	8.69 ± 0.37
GCAAAGCACAAATATGCATGTAGATATAGAATAATG [TGCATGCA_site382]	8.9 ± 0.38
AAAAAAGAAAAAAAGTGTACAATATTTATTACATAT [XGTACX_site2277]	8.71 ± 0.53
TTTTTTCTTTTTATGTGTACTTATTTTATTTAATAA [XGTACX_site1080]	8.69 ± 0.56
TATATTTCATTATATTGTACAAAATATATATATTAT [XGTACX_site4644]	8.66 ± 0.45
CATTATATATATTACTAAAAATTTTACCCCTTAGCT [CACACA_negctrl_site302]	8.61 ± 0.41
ATACATGAATAAATATGTACACATATAAAAACATAT [XGTACX_site2740]	9.12 ± 0.37
ATGTATATAAATATACGTACATAAATATAAGTATAG [XGTACX_site7155]	9.02 ± 0.35
AACACGCGCAGACACACACACACACGCACATATATA [CACACA_site7104]	10.3 ± 0.28
TTTTTTTTCTTTTTTTTAAGAAATAAATAAATAATT [XGTACX_negctrl_site137]	7.86 ± 0.55
TTTTAACAAAACTAAATAATCATATATATAAGATAT [GTGCAC_negctrl_site298]	8.37 ± 0.39
CATTTCTATATAAGCACACACGTGGAATTTTTTTTT [CACACA_site5537]	8.93 ± 0.42
TCATATTATAAATAAATAAATAAATATATATATATA [CACACA_negctrl_site577]	8.68 ± 0.23
